Data from PubChem BioAssay AID493208 (National Center for Advancing Translational Sciences (NCATS), 2011).
In all, about 44,000 compounds went through this assay and about 340 (0.77%) were called active. Inconclusive results (about 5%) are left out. Calls come from the whole dose curve; as a rule, active = well fitted inhibition curve with a large enough effect; inconclusive = small, poorly fitted or top-dose-only effect; inactive = flat fitted curve, though single readings scatter. The list shows a part of the results.

Test: Acumen qHTS Assay for Inhibitors of the mTORC1 Signaling Pathway in MEF (Tsc2-/-, p53-/-) Cells: Sytravon;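 note: plate controls were DMSO for no effect and rapamycin for full effect; nearly all actives have a fitted effect of over 50% in size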
Details: phospho-rpS6 immunofluorescence/PI, 24 h; series mostly up to 38.3 µM; activity change, negative = inhibition: at the top concentration
How it was run: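 Tsc2-/-, p53-/- MEFs (empty-vector stable line) in DMEM + 10% FBS were treated with compounds 24 h at 37 degree Celsius, fixed, and immunostained for phospho-rpS6 (Alexa-488) with propidium iodide counterstain. Laser-scanning cytometry gave % positive cells, normalized against 7.5 nM rapamycin and DMSO.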

SMILES	activity change, negative = inhibition
COc1cc(NC(=O)C2CCN(c3cnccn3)CC2)cc(OC)c1	inactive: -1.24%
O=C(Cn1c(=O)n(Cc2ccco2)c(=O)c2oc3ccccc3c21)Nc1ccccc1	inactive: -14.4%
COc1ccccc1N1CCN(C(=O)C2CCN(S(=O)(=O)c3cn(C)cn3)CC2)CC1	inactive: 0%
COc1ccccc1NC(=O)CN1C(=O)C(c2ccc(F)cc2)=NC12CCCCC2	inactive: -11%
CCOCCCNC(=O)c1ccc2c(=O)n(CCc3ccccc3)c(=O)[nH]c2c1	inactive: 9.31%
CCc1ccc2oc(-c3cc(NC(=O)c4cc(OC)c(OC)c(OC)c4)ccc3O)nc2c1	inactive: -9.44%
CCCCc1ccc(NS(=O)(=O)c2cc3c4c(c2)CC(=O)N4CCC3)cc1	inactive: -14%
COc1cccc(N2CCN(C(=O)c3cnn(-c4ccccc4Cl)c3C3CCN(C(=O)OC(C)(C)C)CC3)CC2)c1	inactive: -0.963%
CC(=O)c1ccc(NC(=O)CSc2nc(=O)n(Cc3ccccn3)c3c2CCC3)cc1	inactive: -0.994%
O=C(CCC1N=C2c3ccccc3N=C(SCc3ccc(Cl)cc3)N2C1=O)NCc1cccs1 (stereo unspecified)	inactive: -6.43%
CCC(=O)N1CCc2cc(S(=O)(=O)NC(CC(C)C)C(=O)Nc3cccc(C)c3C)ccc21 (stereo unspecified)	inactive: -23.1%
COc1ccccc1C(=O)n1nc(-c2ccccc2)nc1NCc1ccc(Cl)cc1	inactive: -5.39%
O=C(CCc1ccccc1)NC1CC(=O)N(c2cccc(F)c2)C1 (stereo unspecified)	inactive: -1.42%
CN(C)c1ccc(CNC(=O)CN2C(=O)C3CCCCN3c3ccc(C(=O)N4CCCC4)cc32)cc1 (stereo unspecified)	inactive: -13.6%
CCC(C)NC(=O)c1cc2n(n1)CCCN(Cc1ccc(C)cc1)C2=O (stereo unspecified)	inactive: 1.35%
Cc1ccc(S(=O)(=O)C(CNC(=O)C(=O)NCCc2ccc(Cl)cc2)c2ccco2)cc1 (stereo unspecified)	inactive: -0.525%
Cc1ccc(N2CCN(C(=O)c3cccn4c(=O)c5ccc(Cl)cc5nc34)CC2C)cc1 (stereo unspecified)	inactive: -0.424%
Cc1ccc(Nc2nc(N)nc(CSc3nc4ccccc4s3)n2)cc1	inactive: 1.39%
COc1ccc(C(CNC(=O)c2oc3cc(C)c(C)cc3c2C)N2CCCCC2)cc1 (stereo unspecified)	inactive: 3.08%
CCn1cc(C(=O)N2CCN(c3ccccc3)CC2)c(=O)c2cc(S(=O)(=O)N(C)C)ccc21	inactive: -3.75%
Cc1c2cnn(CC(=O)NCc3ccc(Cl)cc3)c(=O)c2c(C)n1Cc1ccc(F)cc1	inactive: 2.53%

SMILES	activity change, negative = inhibition
O=C(Cc1ccc(F)cc1)NCCc1csc2nc(-c3ccccc3F)nn12	inactive: 5.72%
COc1ccc(CCNS(=O)(=O)c2c(C)nc3sccn3c2=O)cc1OC	inactive: 2.65%
Cc1cc(NS(=O)(=O)c2ccc(NC(=O)COc3ccccc3Br)cc2)no1	inactive: -0.102%
Cc1ccccc1Nc1nn2c(=O)c3ccc(C(=O)NCc4cccs4)cc3nc2s1	inactive: -3.04%
Cc1cc(C)cc(NC(=O)CSc2ccc(-c3cccs3)nn2)c1	inactive: -3.79%
CC(=O)Nc1ccc(C)cc1-c1nc2ccccc2n(CC(=O)c2ccc(C)c(C)c2)c1=O	inactive: 2.33%
CN1CCN(c2nc3c(S(=O)(=O)c4ccc(Cl)cc4)nnn3c3ccsc23)CC1	inactive: 3.49%
COc1ccc(S(=O)(=O)n2nc(C)c(S(=O)(=O)N3CCCCCC3)c2C)cc1C	inactive: 5.01%
O=C(NCCc1csc(-c2ccc(C(F)(F)F)cc2)n1)C(=O)Nc1ccc(F)c(Cl)c1	inactive: -1.24%
CCOC(=O)c1c(N)n(-c2ccc(CC)cc2)c2nc3ccccc3nc12	inactive: -15.7%
O=C(CN1C(=O)CSc2ccc(S(=O)(=O)N3CCOCC3)cc21)NCCCN1CCCCC1	inactive: 11.8%
Cc1ccc(C)c(NC(=O)Cn2c(SCC(=O)NCc3ccccc3)nc3ccccc32)c1	inactive: 12.1%
Cc1ccc(N(CC(=O)N2CCN(c3ccccc3)CC2)S(=O)(=O)c2c(C)noc2C)cc1	inactive: -9.38%
Cc1nc(-c2ccc(F)cc2)sc1CCNC(=O)c1cccs1	inactive: -4.04%
CC(=O)N1CCOc2cc(S(=O)(=O)NCc3ccccc3Cl)c(Cl)cc21	inactive: -4.42%
CCc1ccc(NC(=O)Cn2c(=O)n(-c3ccccc3C)c(=O)c3c2c2cc(OC)ccc2n3C)cc1	inactive: 1.95%
COc1ccc(NC(=O)CSc2nc3ccccc3nc2N2CCCCC2)cc1	inactive: -0.512%
CCOC(=O)c1ccccc1NC(=O)N1CCC(CN2CCOCC2)CC1	inactive: -1.61%
CCOc1ccc(NC(=O)Cn2nc3c(cc2=O)CC(C)CC3)cc1 (stereo unspecified)	inactive: -3.61%
CCOC(=O)c1[nH]c2c(c1Cc1ccccc1)C(=O)CC(c1ccccc1)C2 (stereo unspecified)	inactive: 1.16%
CCN1CCN(C(c2ccccc2Cl)c2sc3nc(-c4ccco4)nn3c2O)CC1 (stereo unspecified)	inactive: -0.615%

SMILES	activity change, negative = inhibition
CCOc1ccc(N(CC(=O)Nc2ccc(OC)cc2)S(=O)(=O)c2ccc(Cl)cc2)cc1	inactive: 1.81%
Cc1ccc(-c2noc(-c3nnn(CC(=O)Nc4ccc(C)c(Cl)c4)c3N)n2)cc1	inactive: -0.705%
CC(C)Oc1ccc(C(=O)NCC(c2ccc(N(C)C)cc2)N2CCc3ccccc32)cc1 (stereo unspecified)	inactive: 0%
Cc1ccc2c(C)c(C(=O)N(Cc3ccc(N(C)C)cc3)Cc3ccco3)oc2c1C	inactive: 5.46%
O=C(CCSCCc1ccccn1)Nc1ccc(Cl)cc1	inactive: 0.449%
CCN(c1ccccc1)S(=O)(=O)c1nnc(NC(=O)C2CCCCC2)s1	inactive: -2.83%
COc1ccc2c(c1)c(N1CCCC1=O)c(C(=O)Nc1cc(C)c(Cl)cc1OC)n2C	inactive: -0.157%
CCn1c(=O)c2sccc2n2c(CCC(=O)Nc3ccc(F)cc3)nnc12	inactive: -14.2%
Cc1ccc2c(c1)cc1c(=O)n(Cc3ccccc3Cl)nc(C)n12	inactive: 2.29%
COc1ccc(-c2onc(C)c2C)cc1S(=O)(=O)NCCc1ccccc1	inactive: 0.43%
Oc1c(C(c2ccccc2)N2CCCC2)sc2nc(-c3ccco3)nn12 (stereo unspecified)	inactive: -13.5%
CCOC(=O)Cc1ccc(NC(=O)NC(C)c2c(-n3cccc3)sc(C)c2C)cc1 (stereo unspecified)	inactive: -0.356%
CCOC(=O)c1c(C)[nH]c(CCC(=O)NCc2cc(OC)c(OC)c(OC)c2)c1C	inactive: 5.29%
COc1cc(-n2c(=O)c3ccccc3n(Cc3cccc(Cl)c3)c2=O)cc(OC)c1OC	inactive: 5.45%
COc1ccc(CCN2C(=O)N(c3cccc(OC)c3)C(=O)C2CC(=O)Nc2ccccc2)cc1 (stereo unspecified)	inactive: -4.34%
Cc1cc2oc(=O)c(CC(=O)O)c(C)c2c2occ(-c3ccccc3)c12	inactive: 7.55%
Cc1ccc(C)c(Cn2c(=O)n(-c3ccccc3)c(=O)c3c4c(sc32)CCCC4)c1	inactive: 3.24%
CCNC(=O)CC1C(=O)N(c2ccc(C)cc2)C(=O)N1CCOC (stereo unspecified)	inactive: -9.27%
COc1ccc(CNC(=O)CN2C(=O)CCn3nc(-c4cn(C)c5ccccc45)cc32)cc1	inactive: -3.25%
